In PubChem BioAssay AID1768 (National Center for Advancing Translational Sciences (NCATS), 2009):
Out of some 270,000 compounds screened, about 620 (0.23%) were called active. Inconclusive means that the source gave no clear call. Such entries were picked first, then a sample of the others. Calls follow the shape of the dose curve; as a rule, active = well fitted inhibition curve with a large enough effect in the polarisation, with a control signal flat (not every such curve was filed as active); inconclusive = small, poorly fitted or top-dose-only effect, or effect the other way, or a change in a side signal; inactive = no such curve, though single readings can be large or run the other way; the % refers to the polarisation. Potencies of inconclusive entries are doubtful fits and often do not repeat. “Side channel” marks fits to a control or component signal instead of the main read-out.

target: Menin (Homo sapiens) (UniProt O00255); experiment: qHTS Assay for Inhibitors Targeting the Menin-MLL Interaction in MLL Related Leukemias: Competition With Texas Red Labeled MLL-derived Mutant Peptide; settings: fluorescence polarization; FP activity change, negative = inhibition: at 61.6 µM (top of the series); as to FP activity change, negative = inhibition: % of control where 0% means no effect
Sequence of UniProt O00255 (O00255 whole entry, looked up): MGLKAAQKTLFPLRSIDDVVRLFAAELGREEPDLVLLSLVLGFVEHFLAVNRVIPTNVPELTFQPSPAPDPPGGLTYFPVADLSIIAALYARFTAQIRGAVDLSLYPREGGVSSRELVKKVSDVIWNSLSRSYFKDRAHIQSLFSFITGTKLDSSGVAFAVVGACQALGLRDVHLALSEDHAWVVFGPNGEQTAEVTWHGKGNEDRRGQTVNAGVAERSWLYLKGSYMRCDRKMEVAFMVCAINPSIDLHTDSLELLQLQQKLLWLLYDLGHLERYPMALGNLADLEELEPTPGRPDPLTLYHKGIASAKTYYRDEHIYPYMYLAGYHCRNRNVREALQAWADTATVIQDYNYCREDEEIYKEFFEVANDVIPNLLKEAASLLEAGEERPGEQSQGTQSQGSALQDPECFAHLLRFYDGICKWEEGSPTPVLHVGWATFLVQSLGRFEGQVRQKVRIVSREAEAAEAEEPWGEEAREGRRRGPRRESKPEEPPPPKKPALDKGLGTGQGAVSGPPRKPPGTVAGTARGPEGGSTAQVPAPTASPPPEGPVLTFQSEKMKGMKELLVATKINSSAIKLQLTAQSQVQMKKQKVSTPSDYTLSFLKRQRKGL
Potency is read from the fitted curve at half-maximal effect; tags tell the direction and shape of the fitted curve or compound fluorescence and quenching.

Structure (SMILES)	Potency	FP activity change, negative = inhibition
Cc1ccc2c(c1)/C(=C/c1ccccc1C)C(=O)N2	inconclusive: 28.2 µM [fluorescent, side channel, partial curve]	–
CC[n+]1c(/C=C/c2ccc(N(C)C)cc2)ccc2ccccc21	inconclusive: 3.55 µM [fluorescent, side channel, full curve]	–
O=C(Nc1cccc(Cl)c1)c1csc(-c2ccccc2)n1	inconclusive: 1.26 µM [inhibitor, partial curve]	–
CCN1C(=O)C(CC(=O)Nc2ccc(Br)cc2)N(CCCc2ccccc2)C1=S (centres undefined)	inconclusive: 8.91 µM [quencher, side channel, partial curve]	–
CC1(c2ccc(Cl)c(Cl)c2)NC(=S)N2C1NC(=S)N2c1ccccc1 (centres undefined)	inconclusive: 28.2 µM [quencher, side channel, single point]	–
Cc1cc2nn(-c3ccc(Cl)cc3)nc2cc1N	inconclusive: 12.6 µM [quencher, side channel, partial curve]	–
O=c1[nH]c(/C=C/c2ccccc2)c([N+](=O)[O-])c(=O)[nH]1	inconclusive: 20 µM [quencher, side channel, single point]	–
Cc1ccc(S(=O)(=O)Nc2ccc(-c3nc4cc(NS(=O)(=O)c5ccc(C)cc5)ccc4o3)cc2)cc1	inconclusive: 3.55 µM [quencher, side channel, full curve, poor fit]	–
O=C(Cc1coc2ccc3ccccc3c12)N1CCCC1	inconclusive: 39.8 µM [inhibitor, single point]	–
CCn1c(SCC(=O)N2c3ccccc3CCc3ccccc32)nnc1-c1ccc(OC)cc1	inconclusive: 3.55 µM [inhibitor, single point]	–
CS(=O)(=O)N(CC(=O)N1CCCC1)Cc1ccccc1	inconclusive: 20 µM [fluorescent, side channel, partial curve]	–
CO[C@H]1[C@H](O[C@H]2O[C@@H](C)[C@@H](O[C@@H]3C[C@](C)(O)[C@H](O)[C@H](C)O3)[C@@H](N(C)C)[C@@H]2O)[C@@H](CC=O)C[C@@H](C)[C@@H](O[C@H]2CC[C@H](N(C)C)[C@H](C)O2)/C=C\C=C/C[C@@H](C)OC(=O)C[C@H]1O	–	inactive: -7.97% [at 24.8 µM]
O=C(Cn1cc(C(F)(F)F)cc(Cl)c1=O)Nc1ccc(N2CCOCC2)cc1	inconclusive: 39.8 µM [quencher, single point]	–
c1cc(CN2CCN(C3CCCCCC3)CC2)ccn1	inconclusive: 12.6 µM [inhibitor, partial curve]	–
Nc1ccc(-c2cc(N)n(-c3ccccc3)n2)cc1	inconclusive: 14.1 µM [quencher, side channel, partial curve]	–
CCOC(=O)c1cccc(NC(=O)/C=C/c2cccc([N+](=O)[O-])c2)c1	inconclusive: 11.2 µM [quencher, side channel, partial curve]	–
S=C(Nc1ccc(Br)cc1)Nc1ccc2c(c1)OCCO2	inconclusive: 25.1 µM [quencher, partial curve]	–

Structure (SMILES)	Potency	FP activity change, negative = inhibition
CCCCc1nc(N2CCOCC2)c(C#N)c2c1CCCC2	inconclusive: 20 µM [fluorescent, side channel, partial curve]	–
CC1CCC2(CC1)NC(=O)N(CC(=O)Nc1sc3c(c1C(N)=O)CCC3)C2=O (centres undefined)	inconclusive: 20 µM [quencher, side channel, partial curve]	–
CCCCn1c(=O)[nH]c(=O)c2c1nc(CN(C)Cc1cccc(OC)c1OC)n2CCC	inconclusive: 1.12 µM [fluorescent, side channel, full curve]	–
Cc1cccc(NC(=S)N/N=C/c2cccc([N+](=O)[O-])c2)c1	inconclusive: 35.5 µM [quencher, side channel, single point]	–
CCOC(=O)COn1c(=O)c(-c2cccs2)[n+]([O-])c2ccccc21	inconclusive: 15.8 µM [quencher, side channel, single point]	–
Cc1ccc(S(=O)(=O)NCCN=C(CN2CCCC2)NS(=O)(=O)c2ccc(C)cc2)cc1	inconclusive: 17.8 µM [fluorescent, side channel, partial curve, poor fit]	–
O=C(NCCc1c[nH]c2ccccc12)c1cccc(S(=O)(=O)Nc2ccccc2Cl)c1	inconclusive: 14.1 µM [quencher, side channel, partial curve]	–
C=CCc1cccc(/C=N/NC(=O)c2ccccc2Br)c1O	inconclusive: 22.4 µM [quencher, side channel, single point]	–
COC(=O)c1sc(NC(=O)c2cc(-c3ccccc3)nc3ccccc23)c(C#N)c1C	inconclusive: 39.8 µM [quencher, side channel, single point]	–
COc1ccc(-c2n[nH]c(C)c2-c2ccccc2OC)c(O)c1	inconclusive: 28.2 µM [quencher, side channel, partial curve]	–
CC(=O)c1ccc(N2C(=NC(=O)CCC3CCCC3)SC3CS(=O)(=O)CC32)cc1 (centres undefined)	inconclusive: 39.8 µM [fluorescent, side channel, single point]	–
CCOC(=O)c1sc(Nc2nc3ccc(OC)cc3s2)cc1C	inconclusive: 6.31 µM [quencher, side channel, partial curve]	–
NCCCCCCCCCCNS(=O)(=O)c1cccc2c(Cl)cccc12	inconclusive: 14.1 µM [inhibitor, partial curve]	–
CC(C)c1ccc(CNc2ccc(N3CCOCC3)cc2)cc1	–	inactive: -6.66%
COc1ccc(C2CC(O)(c3ccccc3)Oc3cc(OC)ccc32)cc1 (centres undefined)	inconclusive: 22.4 µM [quencher, side channel, single point]	–
COc1cc(C)c(S(=O)(=O)N2CCCC2)cc1C	inconclusive: 39.8 µM [inhibitor, single point]	–
Cc1ccc(C)c(Nc2ncccc2C(=O)NCc2cccs2)c1	inconclusive: 14.1 µM [quencher, partial curve]	–
